# In all, about 94,000 compounds went through this assay and about 6,200 (6.6%) were called active. Inconclusive means that the source gave no clear call. Such entries were picked first, then a sample of the others. The call rests on the fitted dose curve; in most records, active means well fitted inhibition curve with a large enough effect; inconclusive means small, poorly fitted or top-dose-only effect; inactive means flat fitted curve, though single readings scatter. Potencies beside an inconclusive call are fits to weak or partial responses and may not hold up.
# Test: Cytotoxic Profiling in HEK 293 Cell Line of Diverse Libraries Using Quantitative High-Throughput Screening; further: nearly all actives have a fitted effect of over 60% in size
# Conditions: HEK 293 viability, ATP luminescence (CellTiter-Glo), 48-72 h; series mostly up to 115 µM
# Procedure, shortened: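 Cells seeded first (HEK 293, 250 cells/well), then compound added by pintool. Incubation ran 48 or 72 hr at 37 degree Celsius. CellTiter-Glo was added and luminescence imaged after 10 min at room temperature.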
# Potency means the concentration at half of the fitted maximal effect; tags describe the fitted curve by direction and shape.
row,SMILES,Potency
1,O=[S+]([O-])(Nc1ccccc1)c1ccc2c(c1)OCCN(Cc1ccncc1F)C2,"inconclusive: 70.8 µM [inhibitor, partial curve, poor fit]"
2,COc1cc(NC(=O)N[C@H]2CO[C@H]3[C@@H]2OC[C@H]3OC(=O)Nc2cccc(C(C)=O)c2)cc(OC)c1,"inconclusive: 89.1 µM [inhibitor, single point]"
3,O=C(NCc1cccc(F)c1)[C@@H]1CCCN1c1nccc(Nc2ccccc2Cl)n1,"inconclusive: 25.1 µM [inhibitor, partial curve, poor fit]"
4,CNC(=O)c1cc(C2CC2)nc2onc(C3CCCN(C(=O)c4ccc(F)cc4)C3)c12 (stereo unspecified),"inconclusive: 89.1 µM [inhibitor, partial curve, poor fit]"
5,C=CCNC(=O)N[C@H]1CCN2C(=O)c3cc(-c4cccc(C)c4C)ccc3NC(=O)[C@@H]2C1,"inconclusive: 89.1 µM [inhibitor, partial curve, poor fit]"
6,O=C(NCc1ccc(C(F)(F)F)cc1)c1ccc2nnc(-c3ccc(C(F)(F)F)cc3)n2c1,active: 35.5 µM
7,COCC1CN(C(C)=O)CC12CCN(C(=O)c1ccc(F)cc1F)CC2 (stereo unspecified),"inconclusive: 89.1 µM [inhibitor, single point]"
8,Cn1ncc2c(C(=O)Nc3cccc(F)c3)cc(-c3ccccc3C(F)(F)F)nc21,"inconclusive: 79.4 µM [inhibitor, partial curve, poor fit]"
9,CCn1ccc(C(=O)N2CCC(Cc3nncn3CC3CC3)CC2)n1,"inconclusive: 63.1 µM [inhibitor, partial curve, poor fit]"
10,COC(=O)c1cccc(C(=O)N[C@H]2CO[C@H]3[C@@H]2OC[C@H]3OC(=O)Nc2cccc(C(F)(F)F)c2)c1,"inconclusive: 56.2 µM [inhibitor, partial curve, poor fit]"
11,COc1cccc(CN2Cc3nc(-c4c(C)noc4C)ccc3OCC2=O)c1,"inconclusive: 112 µM [inhibitor, partial curve, poor fit]"
12,Cc1ccc(NC(=O)Cn2ccn3nc(-c4ccccc4)c(CO)c3c2=O)cc1C,"inconclusive: 50.1 µM [inhibitor, partial curve, poor fit]"
13,CN1CCC2(C1)CN(CC1CC1)c1ccc(C(=O)NC3CCC3)cc12 (stereo unspecified),"inconclusive: 100 µM [inhibitor, partial curve, poor fit]"
14,COc1ccccc1C(=O)N1CCCN(C)c2ccccc21,active: 79.4 µM
15,COc1cccc(CNC(=O)c2cc(-c3cccs3)c3cccn3n2)c1,"inconclusive: 50.1 µM [inhibitor, partial curve, poor fit]"
16,O=C(Nc1ccccc1)N1CCN(C(=O)c2nc3cccnc3n(C3CCCC3)c2=O)CC1,inactive
17,COC(=O)c1ccc2c(c1)nc1n2[C@@H](CNCc2ccc(C(F)(F)F)cc2)COC1,"inconclusive: 79.4 µM [inhibitor, partial curve, poor fit]"
18,Cn1c(Cn2cccn2)nnc1C1CC(NC(=O)CCN2CCCO2)C1 (stereo unspecified),inactive
19,COC(=O)[C@H](NC(=O)[C@@H]1C[C@@H](NC(=O)Nc2cccc(F)c2)CCN1C(=O)CCC(=O)O)C(C)C,inactive
20,O=C(CCC[C@@H]1[C@H]2CCCN3CCC[C@@H](CN1C(=O)c1ccccc1)[C@@H]23)Nc1ccc(F)cc1F,inactive
21,CCNC(=O)[C@@H]1C[C@H](n2cc(CN(C)C(=O)OC)nn2)CN1,inactive
22,O=C(O)c1cn2ccnc(-c3ccccc3)c2n1,inactive

row,SMILES,Potency
1,CCNC(=O)NCC1c2cc(OC)c(OC)cc2CCN1C(=O)Nc1ccccc1OC (stereo unspecified),inactive
2,Oc1cc(-c2csc3ccccc23)cc2c1OCCNC2,active: 20 µM
3,O=C1[C@H]2CN(Cc3ccccc3F)C[C@H]2C(=O)N1Cc1ccc2c(c1)OCO2,"inconclusive: 70.8 µM [inhibitor, single point]"
4,O=C(NCCc1ccc(Cl)cc1)C1CN(c2ccccc2)C(=O)N1 (stereo unspecified),"inconclusive: 89.1 µM [inhibitor, single point]"
5,CCC(O)c1cc2n(n1)CCN(Cc1nccn1Cc1ccccc1)C2 (stereo unspecified),inactive
6,O=C(NCCc1ccc(Cl)cc1)c1ccc2nnc(C3CCCC3)n2c1,"inconclusive: 44.7 µM [inhibitor, partial curve, poor fit]"
7,CCOC(=O)C(Cc1cccc(N2CCN(C(=O)c3c(Cl)cccc3Cl)CC2)c1F)OC (stereo unspecified),active: 79.4 µM
8,COCc1cc(=O)n(CC(=O)N2CCN(c3ccc(F)cc3)CC2)c(N2CCOCC2)n1,inactive
9,CN1CCCCCCN(C(=O)c2cccn2C)[C@H]2CCC[C@H]2C1=O,"inconclusive: 56.2 µM [inhibitor, partial curve, poor fit]"
10,CCCCCC(=O)N1c2cccc3c2[C@@H](C[C@H]1C(N)=O)CN(Cc1ccc(OC)cc1)C3=O,"inconclusive: 31.6 µM [inhibitor, partial curve]"
11,O=C(c1ccc(F)cc1)N1Cc2[nH]cnc2C[C@H]1c1nc(-c2ccc3c(c2)OCO3)no1,"inconclusive: 100 µM [inhibitor, partial curve]"
12,CCc1cc(=O)n(CC(=O)Nc2ccc(F)c(Cl)c2)c(N2CCOCC2)n1,"inconclusive: 35.5 µM [inhibitor, full curve]"
13,CCCc1nc(C)cc(N2CCC(NCCc3ccc(Cl)cc3)CC2)n1,active: 14.1 µM
14,CC1=C[C@@H](CN2CCC(C(N)=O)CC2)[C@H](C(C)C)C[C@H]1Cc1nnc(-c2ccc(C)cc2)o1,active: 35.5 µM
15,CCN1c2cc(C(=O)Nc3cccc(C)c3)ccc2C(=O)N2CCCCC21 (stereo unspecified),active: 31.6 µM
16,O=C(COc1ccccc1)N1C[C@@H]2C[C@H](C1)c1ccc(-c3cccc(C(F)(F)F)c3)c(=O)n1C2,inactive
17,CCCn1cc(-c2ccncc2)cc1C(=O)NCc1ccccc1,"inconclusive: 89.1 µM [inhibitor, single point]"
18,CN(C)c1ccc(CN(C)C2CCOc3ccccc32)cc1 (stereo unspecified),"inconclusive: 112 µM [inhibitor, partial curve, poor fit]"
19,O=C(CC1CCOCC1)NCC1CCN(Cc2cccc(F)c2)CC1,inactive
20,CCCc1noc(-c2cn(C3CCN(C(=O)c4sccc4C)CC3)nn2)n1,inactive
21,O=C(NCCc1ccccn1)c1ccnc(-c2nnc3ccc(Nc4ccccc4)nn23)c1,inactive
22,CC(=O)Nc1ccc(S(=O)(=O)N[C@H]2CO[C@H]3[C@@H]2OC[C@@H]3n2nnnc2Oc2ccccc2)cc1,inactive

row,SMILES,Potency
1,COc1cccc(CN2CCC3(CC2)OC(=O)N(Cc2ccccc2)C3(C)c2ccccc2)c1 (stereo unspecified),"inconclusive: 20 µM [inhibitor, full curve, poor fit]"
2,CN(C(=O)c1cnc2n[nH]c(-c3ccccc3)c2n1)c1ccccc1,"inconclusive: 63.1 µM [inhibitor, partial curve, poor fit]"
3,O=C(NCCc1ccncc1)c1ccc(-c2nnc3ccc(NC(=O)C4CCC4)cn23)cc1,"inconclusive: 50.1 µM [inhibitor, partial curve, poor fit]"
4,Cc1nc(CN2C(=O)OC3(CCN(Cc4ccccc4F)CC3)C2(C)c2ccccc2)cs1 (stereo unspecified),"inconclusive: 56.2 µM [inhibitor, partial curve, poor fit]"
5,O=C1CC(c2ccccc2)N(Cc2ccncc2)CCCN(C(=O)COc2ccc(F)cc2)CCN1 (stereo unspecified),"inconclusive: 56.2 µM [inhibitor, partial curve, poor fit]"
6,Cc1ccc(NC(=O)N2CCC(OC3CCN(S(C)(=O)=O)CC3)CC2)cc1C,inactive
7,CN1CCC(NC[C@H]2O[C@H](Cc3cc(-c4ccccc4)on3)CC[C@@H]2O)CC1,"inconclusive: 100 µM [inhibitor, partial curve]"
8,COC1C(=O)N(c2cccc(F)c2)C12CCN(C(=O)c1cccnc1)CC2 (stereo unspecified),inactive
9,CN(CC1CCOC1)S(=O)(=O)c1ccccc1Cl (stereo unspecified),inactive
10,COc1ccccc1C(=O)N1CCCN(c2cc(-c3ccc(Br)cc3)[nH]n2)CC1,active: 39.8 µM
11,C=CCOc1c(OC)ccc2c1CN(CC1CC1)C(=O)CCN2C[C@@H](O)COCc1ccccc1,active: 44.7 µM
12,O=C(NC1CC1)c1cc(-c2cccc(C(F)(F)F)c2)c2nncn2n1,inactive
13,Cc1ccc(-c2cccc(C=O)c2)cc1Cl,inactive
14,CN(Cc1ccon1)Cc1ccccc1OCC(O)CN1CCCCC1 (stereo unspecified),inactive
15,CCN1C(=O)N(Cc2cccc(OC)c2)C(=O)C12CCN(Cc1nc3ccccc3n1C)CC2,"inconclusive: 89.1 µM [inhibitor, partial curve, poor fit]"
16,Cn1c(CNC(=O)CC2CCN(S(C)(=O)=O)C2)nc2ccccc21 (stereo unspecified),"inconclusive: 15.8 µM [inhibitor, full curve, poor fit]"
17,COc1cccc(C(=O)N2CCC[C@H]2c2nc(-c3ccccc3Cl)no2)c1,"inconclusive: 89.1 µM [inhibitor, single point]"
18,O=C(NC1CCCN(c2cc(-c3ccc(F)cc3)[nH]n2)C1)c1ccc(C(F)(F)F)cc1 (stereo unspecified),"inconclusive: 44.7 µM [inhibitor, partial curve, poor fit]"
19,CN(C)C(=O)c1cccc2c1CCN2C(=O)C1CC1,inactive
20,COCc1ccc2c(c1)c(OC(C)(C)C(=O)NCCc1cccnc1)nn2Cc1ccccc1,"inconclusive: 89.1 µM [inhibitor, single point]"
21,CC(C)CC(=O)Nc1ccc([C@H]2OCC(=O)N(Cc3nccn3C)[C@@H]2CO)cc1,inactive
22,CC(C)(C)c1cc(C[C@@H]2C[C@H](NCc3ccccn3)C2(C)C)no1,active: 50.1 µM
